In all, about 52,000 compounds went through this assay and about 1,700 (3.3%) were called active. No stated cut-off is given here; in the data, active means survival mostly below about 52% (no sharp cut-off); inactive means mostly above about 56%. Some of the results follow.
Tested on: Wild type
Experiment: S. aureus survival, RN4220 and DeltatarO strains – OD600, teichoic acid synthesis inhibitors, primary screen (AID 463173)
Details: S. aureus RN4220 wild type/DeltatarO growth, OD600, 18 h, active compounds read low, screened at 18.75 µg/mL (by protocol)

SMILES	survival
COc1ccc2c(c1)Cc1sc(NC(=O)c3cccc(C)c3)nc1-2	active: 7%
O=C(CCC1CCCC1)NCc1ccco1	inactive: 120%
Cc1nc(C)c(C(=O)O)o1	inactive: 110%
COC(=O)CSc1nc2sc3c(c2c(=O)n1-c1ccccc1C)CC(C)(C)OC3	inactive: 95%
Clc1ccc(-c2nc3c4cnn(-c5ccccc5Br)c4ncn3n2)c(Cl)c1	inactive: 86%
Cc1oc(-c2ccc(C(=O)NCCC(C)C)cc2)nc1CN1CCc2ccccc21	inactive: 78%
CCc1ccc(NS(=O)(=O)c2cc(-c3cnc(C4CC4)o3)ccc2C)cc1	inactive: 136%
Cc1ccc(OCC(=O)OC2=C(C(=O)c3ccccc3)N(C)S(=O)(=O)c3ccccc32)cc1	inactive: 72%
Cc1ccccc1NC(=O)c1sc2nc3n(c(=O)c2c1C)CCC3	inactive: 84%
O=S(=O)(Nc1cccc(C(F)(F)F)c1)c1ccc(-c2cnc(C3CC3)o2)cc1	inactive: 77%
CN1C(=O)/C(=C\C2(C)N3CC4(C)CN2CC(C)(C3)C4=O)c2ccccc21 (centres undefined)	inactive: 111%
Cc1nonc1OCCN1CCN(c2cnn(-c3ccccc3)c(=O)c2Cl)CC1	inactive: 114%
Cc1ccc(-n2nnc(-c3nc(-c4cccs4)no3)c2N)c(C)c1	inactive: 113%
O=C(c1cc2nc(-c3ccco3)cc(C(F)(F)F)n2n1)N1CCCc2ccccc21	inactive: 106%
CC(C)c1ccc(OCC(=O)Nc2c(C(=O)c3ccc(F)cc3)oc3ccccc23)cc1	inactive: 66%
COc1ccc(S(=O)(=O)c2c(C(=O)c3ccc(C)c(C)c3)cnc3ccc(F)cc23)cc1	inactive: 96%
COc1ccccc1CNC(=O)Cn1ncn2c(cc3sccc32)c1=O	inactive: 76%
Cc1cccc(C)c1NC(=O)CS(=O)CC(=O)Nc1ccc(F)c(F)c1 (centres undefined)	inactive: 107%
Cc1ccc(Nc2c(-c3ccsc3)nc3c(C)cccn23)cc1	active: -3%
O=C(NCC1CC1)C1C2C3C4CC5C3C5C4C12 (centres undefined)	inactive: 113%

SMILES	survival
COc1ccccc1NC(=O)CC(c1cc(OC)c(OC)c(OC)c1)N1Cc2ccccc2C1=O (centres undefined)	inactive: 77%
CCCCCSc1nc2sc3c(c2c(=O)n1-c1ccc(OC)cc1)CCN(C(C)=O)C3	active: -21%
COc1ccc(S(=O)(=O)NCc2cccn2Cc2cccc(C)c2)cc1	inactive: 66%
CCOC(=O)CSc1nnc2n(-c3ccccc3)c(=O)c3c4c(sc3n12)CC(C(C)(C)C)CC4 (centres undefined)	inactive: 15%
COc1cc2c(cc1NC(=O)COc1ccc(Cl)cc1Br)oc1ccccc12	inactive: 83%
Cc1c(C)n(C)c2ccc(C(=O)NCc3cccc(F)c3)cc12	inactive: 71%
CC(C)(C)NC(=O)CSc1nc2ccccc2c(=O)[nH]1	inactive: 105%
COC(=O)c1cc2sc(Cl)cc2n1Cc1cc(C)ccc1C	inactive: 35%
CCOc1ccc(CNC(=O)CCCc2cn(C)c3ccccc23)cc1OC	inactive: 117%
Cc1cc(=O)c2cc(C(=O)Nc3ccccc3C)ccc2[nH]1	inactive: 87%
CCOc1cc2sc(N3CCC(C(=O)Nc4cc(C)cc(C)c4)CC3)nc2cc1Br	inactive: 123%
CC(=O)Nc1ccc(NC(=O)CC2C(=O)Nc3ccccc3N2C(C)=O)cc1 (centres undefined)	inactive: 101%
COc1ccc(Cn2ccc3nc(C)c(C(=O)NCc4cccc(OC)c4)cc3c2=O)cc1	inactive: 75%
Cc1ccc(-n2nc3c(=O)n(CC(=O)NCC(C)c4ccccc4)nc(C)c3c2C)cc1 (centres undefined)	inactive: 89%
CCc1ccccc1NC(=O)Cn1c2ncccc2c(=O)n1-c1ccccc1	inactive: 143%
CN1C(=O)C(=C(C#N)C#N)c2cc(Br)ccc21	inactive: 109%
COC(=O)c1ccc(CSc2nnc3ccc4ccccc4n23)cc1	inactive: 88%
COc1ccccc1Cn1cc(C(=O)c2ccc(C)cc2)c(=O)c2cc3c(cc21)OCCO3	inactive: 83%
CCn1cc2c(n1)-c1c(oc(C(=O)Nc3cccc(C(F)(F)F)c3)c1C)CC2	inactive: 91%
COc1ccc(CCNC(=O)CCCCn2c(=O)c3ccccc3n(Cc3ccccc3Cl)c2=O)cc1OC	inactive: 102%

SMILES	survival
O=C(CN1CCSc2ccccc21)N1CCN(c2ccc(F)cc2)CC1	inactive: 63%
Cc1ccc(N(C)C(=O)c2cc(S(=O)(=O)N3CCOCC3)cn2C)cc1	inactive: 84%
CCCN(Cc1cccs1)C(=O)Nc1cc(OC)ccc1OC	inactive: 81%
CC(C)C(OC(=O)c1cccs1)C(=O)NC1CCCC1 (centres undefined)	inactive: 101%
COc1ccc(C(=O)Nc2ccc(C(=O)OCc3cc(=O)n4nc(C5CC5)sc4n3)cc2)cc1	active: -3%
COc1ccccc1-c1noc(CCCC(=O)Nc2cc(C)ccc2C)n1	inactive: 87%
CC(=O)c1ccc(NC(=O)CCOc2ccccc2)cc1	inactive: 150%
Cc1ccc(-n2nc3c(N4CCC(C(=O)NCc5ccccc5Cl)CC4)nnc(C)c3c2C)cc1	inactive: 135%
CCN(CC)C(=O)Nc1ccc2c(c1)N(Cc1ccccc1)C(=O)c1ccccc1S2	inactive: 80%
COc1ccc(OC)c(S(=O)(=O)NCCc2csc(-c3cccc(F)c3)n2)c1	inactive: 135%
CCOC(=O)c1c(C)[nH]c(C)c1S(=O)(=O)NCC(=O)N1CCN(c2ccccc2OC)CC1	inactive: 73%
COc1cc(C(=O)NC(c2ccc(Cl)cc2)c2cc(Cl)c3cccnc3c2O)cc(OC)c1OC (centres undefined)	inactive: 87%
CCc1cccc(C)c1NC(=O)CN1CCCN(Cc2ccccc2Cl)S1(=O)=O	active: 14%
CCOc1ccccc1NC(=O)C(CC)n1c(C(=O)OC)cc2occc21 (centres undefined)	active: 0%
Cc1csc(N/N=C\CCc2ccccc2)n1	inactive: 110%
COc1cc(C2c3c(-c4ccccc4O)n[nH]c3C(=O)N2Cc2ccco2)ccc1OCC(C)C (centres undefined)	inactive: 43%
O=C(Cn1ncc2ccsc2c1=O)N1CCN(c2ccccc2F)CC1	inactive: 73%
CCCCN(CC)CCNC(=O)C1CCCN(S(=O)(=O)c2cccc3nsnc23)C1 (centres undefined)	inactive: 128%
COc1ccc(Nc2oc(/C=C/c3cccc(OC)c3)nc2C#N)cc1	inactive: 115%
